In one experiment the target is NS3h 2a[JFH1]. Description: HCV NS3 helicase inhibition across viral strains, late-stage follow-up, selectivity assay for HCV NS3 helicase inhibitor project, biochemical, real-time fluorescence, strains con1 and JFH1, set 3 (AID 602275). The settings on record: Recombinant NS3h, real-time fluorescence helicase unwinding.
In the next experiment the target is NS3h 1b[con1]. Described as above. The settings on record: Recombinant NS3h, real-time fluorescence helicase unwinding.

A number of entries come with more than one value. The list is limited to them. The rule behind the calls is not given here. There may be further records. Values that stand side by side are repeated measurements in other runs, samples, wells, individuals or studies. What stands in brackets tells the records apart. The letters are not those of the source and start again with each entry.

For the compound `Cc1ccc2nc(-c3ccc4nc(-c5ccc(N)cc5)sc4c3)sc2c1S(=O)(=O)O`, the IC50 is 7.3 µM [sample A] and inactive [sample B] on NS3h 2a[JFH1]; 5.6 µM [sample A] and 45.3 µM [sample B] and inactive [sample C] on NS3h 1b[con1].

Source of the values: PubChem BioAssay AID602275 (The Scripps Research Institute Molecular Screening Center, 2012).
